Reference: publication PMC4336329 (PLoS ONE, 2015)
Out of some 310,000 compounds screened, about 2,200 (0.71%) showed an effect of 50% or more. The effect is printed as a negative number. The list shows a part of the results.

Molecular target: human ether-à-go-go-related gene (hERG) potassium channel (human, UniProt Q12809)
Test: primary screen, population patch clamp on CHO cells stably expressing hERG

Chain of human ether-à-go-go-related gene (hERG) potassium channel (Q12809 whole entry, looked up): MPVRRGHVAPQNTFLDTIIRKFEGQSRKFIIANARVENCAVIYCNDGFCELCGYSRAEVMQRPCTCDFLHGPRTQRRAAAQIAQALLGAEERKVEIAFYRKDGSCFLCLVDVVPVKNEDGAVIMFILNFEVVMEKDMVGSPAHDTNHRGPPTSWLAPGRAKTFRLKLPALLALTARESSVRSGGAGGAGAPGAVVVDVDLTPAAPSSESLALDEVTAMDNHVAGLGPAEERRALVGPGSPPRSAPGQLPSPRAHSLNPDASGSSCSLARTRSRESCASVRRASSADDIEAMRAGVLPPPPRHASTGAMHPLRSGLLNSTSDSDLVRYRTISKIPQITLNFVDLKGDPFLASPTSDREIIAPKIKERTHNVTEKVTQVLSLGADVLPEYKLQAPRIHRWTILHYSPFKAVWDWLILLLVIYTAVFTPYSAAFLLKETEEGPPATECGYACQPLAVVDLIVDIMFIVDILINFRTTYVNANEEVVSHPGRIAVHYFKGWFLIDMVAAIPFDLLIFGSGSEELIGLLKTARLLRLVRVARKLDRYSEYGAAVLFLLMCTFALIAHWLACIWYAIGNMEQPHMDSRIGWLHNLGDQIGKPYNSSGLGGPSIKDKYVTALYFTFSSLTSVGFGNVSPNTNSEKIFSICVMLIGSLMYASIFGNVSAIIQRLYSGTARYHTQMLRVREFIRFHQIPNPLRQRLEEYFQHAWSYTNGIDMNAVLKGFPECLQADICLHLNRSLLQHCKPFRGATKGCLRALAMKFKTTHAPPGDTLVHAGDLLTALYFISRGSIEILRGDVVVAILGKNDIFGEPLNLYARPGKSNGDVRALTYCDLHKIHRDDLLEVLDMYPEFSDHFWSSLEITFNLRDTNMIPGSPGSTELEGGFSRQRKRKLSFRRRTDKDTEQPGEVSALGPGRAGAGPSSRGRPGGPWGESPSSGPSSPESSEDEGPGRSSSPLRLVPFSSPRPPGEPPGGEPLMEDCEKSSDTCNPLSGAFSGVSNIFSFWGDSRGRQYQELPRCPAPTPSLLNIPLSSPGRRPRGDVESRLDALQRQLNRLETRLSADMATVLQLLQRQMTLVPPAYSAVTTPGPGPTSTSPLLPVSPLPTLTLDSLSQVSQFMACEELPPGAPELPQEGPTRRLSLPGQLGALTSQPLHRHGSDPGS

Row | SMILES | hERG current change (%, negative = inhibition) at 1uM [%]
1 | COc1cccc(NC(=O)NC2(C(F)(F)F)Oc3ccccc3O2)c1 | 8.19
2 | Cc1oc2c(c1C(=O)N1CCOCC1)C(=O)c1ccccc1C2=O | 18.5
3 | COC(=O)Cn1c(O)c(N=NC(=O)CNC(=O)c2ccc3c(c2)OCCO3)c2ccccc21 | 11
4 | CCCC[C@H]1COCCS(=O)(=O)N1Cc1cccc(F)c1 | -11.7
5 | Cn1c(=O)oc2cc(S(=O)(=O)Nc3ccc(F)cc3)ccc21 | 5.46
6 | CC1=C(C(=O)OCC2CCCO2)C(c2ccccc2)C2=C(CC(C)(C)CC2=O)N1 (centres unmarked) | 10.4
7 | CCN(c1ccccc1)S(=O)(=O)c1nnc(NC(=O)CC(C)C)s1 | 1.44
8 | COc1ccc(-c2cn(-c3ccc(OC)cc3)c(=S)[nH]2)cc1 | 10.6
9 | O=S(=O)(c1ccc2nc(N3CCN(c4ccccc4)CC3)ccc2c1)N1CCCCC1 | 16.8
10 | O=C(Nc1ccncc1)Nc1cccc(Cl)c1 | 6.49
11 | Cc1ccc2oc(=O)c3cnn(CC(=O)N4CCN(c5ccccn5)CC4)c3c2c1 | -22.4
12 | CCCCCN(C(=O)CCC(=O)OC(C)C(=O)NCc1ccccc1)c1c(N)n(CCCC)c(=O)[nH]c1=O (centres unmarked) | 8.83
13 | CCOC(CNC(=O)c1ccc2c(c1)ncn2-c1ccccc1OC)OCC | 9.06
14 | COc1cccc(C(=O)Nc2nc3c(c(=O)[nH]2)CCCC3)c1 | 14.7
15 | CCN1C[C@]2(COC)CC[C@H](O)[C@@]34C5C[C@H]6[C@H](O)C5[C@](O)(C[C@H]6OC)[C@@H]([C@H](OC)C23)[C@@H]14 (some centres unmarked) | 11.4
16 | Cc1c(Cl)ccc2c(C(=O)Nc3cc(C(C)(C)C)on3)cc(-c3ccccn3)nc12 | 6.02
17 | CSc1nncc(/C(C)=N\Nc2ccccc2)n1 | 0.897
18 | CCOC(=O)c1cn(CC)c2c(ccc3ccccc32)c1=O | 16
19 | O=C(COC(=O)c1ccc2c(c1[N+](=O)[O-])C(=O)c1ccccc1C2=O)NC1CC1 | 4.36
20 | O=C(CCl)Nc1ccc(N2CCCCCC2)cc1 | 13.9
21 | COc1ccccc1N1CCN(Cc2cc(=O)c(OCC(=O)NC(C)C)co2)CC1 | 14.9
22 | COc1cc(CNCc2ccc(OC)c(OC)c2OC)cc(OC)c1 | -1.39
23 | C[C@]12CC[C@@H]3c4ccc(OS(=O)(=O)[O-])cc4CC[C@H]3[C@@H]1CCC2=O.[Na+] | 12.7

Row | SMILES | hERG current change (%, negative = inhibition) at 1uM [%]
24 | Cc1ccc(-c2csc3nc(CSc4nnc(-c5ccc(Cl)cc5)n4C)[nH]c(=O)c23)cc1 | 5.73
25 | COc1ccc(C(CNC(=O)c2cc(=O)[nH]c3ccccc23)N2CCCC2)cc1 (centres unmarked) | 9.77
26 | C#CCSc1nnnn1-c1cccc(Cl)c1 | 2.71
27 | CCCSc1nc2c(c(=O)[nH]c(=O)n2C)n1Cc1ccccc1 | 2.13
28 | Cc1ccccc1N1CC(=O)N(c2ccccc2C)CC1=O | 4.9
29 | O=C(O)c1ccc(N2C(=O)/C(=C\c3ccccc3)N=C2c2ccccc2)cc1 | 8.09
30 | N=c1c(S(=O)(=O)c2ccc(Cl)cc2)cc2c(=O)n3ccccc3nc2n1C1CCCC1 | 13.9
31 | C/C(=N/NC(=O)C1CCN(S(=O)(=O)c2ccc(C)cc2)CC1)c1cccc([N+](=O)[O-])c1 | 10.8
32 | O=C(Nc1cccc(Cl)c1)Nc1nccs1 | 4.99
33 | O=S(=O)(c1ccccc1)N1CCN=C1SCc1ccc(Cl)cc1 | 5.15
34 | CCOC(=O)N1CCC(NC(=O)C2=C(C)C(=O)OC23CCC(C)CC3)CC1 (centres unmarked) | 2.98
35 | COCCN1CCN(C(=O)c2cc(COc3ccc(Cl)cc3OC)on2)CC1 | 8.2
36 | CCOc1ccc(S(=O)(=O)NCc2cccnc2)cc1C | 11.6
37 | O=C(Nc1nnc(SCc2cccc(F)c2)s1)c1ccco1 | 0.98
38 | Cc1c(S(=O)(=O)N2CCN(c3cccc(Cl)c3)CC2)c(=O)n(C)c(=O)n1C | 5.16
39 | CCCc1c(C(=O)N/N=C/c2c(OC)ccc3ccccc23)nnn1-c1nonc1N | 9.21
40 | CC(=O)c1cccc(NC(=O)C2=CN3CCS(=O)(=O)N=C3C=C2)c1 | 14.7
41 | COc1ccccc1CNc1cc(-c2ccccc2)ccc1OC | 13.1
42 | CCOc1ccccc1NC(=O)CCC(=O)O | -12.3
43 | O=C1OC(c2ccc(Br)cc2)=N/C1=C\N1CCCCC1 | 16.2
44 | Cc1ccc(-c2csc(NC(=O)c3c(C)noc3C)n2)cc1 | -0.623
45 | Cc1ccc(C(=O)COC(=O)c2cccc(N3C(=O)c4c(C)nc5ccccc5c4C3=O)c2)cc1C | 1.85
46 | O=C(NCCc1ccccc1)C1CCCN1C(=O)Nc1ccc(F)cc1 (centres unmarked) | 9.53

Row | SMILES | hERG current change (%, negative = inhibition) at 1uM [%]
47 | CCCn1c(N)c(N(CCOC)C(=O)c2cc(S(=O)(=O)N3CCCCCC3)ccc2OC)c(=O)[nH]c1=O | 1.73
48 | CCN1C(=O)CC(NNC(=O)c2ccccc2)C1=O (centres unmarked) | -5.94
49 | Cc1cccc(OCCNC(=O)CCNS(=O)(=O)c2ccc3ccccc3c2)c1 | 6.04
50 | Cc1ccc(-c2cc(C(F)F)n3ncc(C(=O)NCc4ccco4)c3n2)cc1 | 8.75
51 | COc1ccc(CCCc2n[nH]c(=S)o2)cc1 | 9.17
52 | CC(OC(=O)C1=Cc2ccccc2OC1)C(=O)NCc1ccco1 (centres unmarked) | 10.6
53 | O=C1c2ccccc2C(=O)N1CCc1nn[nH]n1 | 15.2
54 | O=C(Nc1ccon1)c1csc2ccccc12 | 10.9
55 | Cc1ccc(N(C(=O)Cn2nnc3ccccc32)C(C(=O)NCc2ccccc2)c2ccccn2)cc1 (centres unmarked) | 2.5
56 | CC1CCCN(C(=O)COC(=O)c2ccc(=O)n(Cc3ccccc3)n2)C1 (centres unmarked) | 11.7
57 | CCc1nc(C)cn1S(=O)(=O)c1ccc([N+](=O)[O-])cc1 | 8.97
58 | Cc1cc(C)nc(NC(=O)CSc2nnnn2-c2ccccc2)n1 | -4.26
59 | CSCCC(N=CC1=C(O)CC(C)(C)CC1=O)C(=O)O (centres unmarked) | 7.35
60 | Cn1c(=O)c2c(nc(SCCN3CCOCC3)n2Cc2ccc(F)cc2)n(C)c1=O | -4.01
61 | CCN(CCn1cccn1)C(=O)CCc1nnc(Cc2c[nH]c3ccccc23)o1 | 3.23
62 | CCCn1c(/N=C/c2ccccc2O)nc2ccccc21 | 21
63 | CN(C(=O)c1ccco1)c1nc(-c2ccccc2)cs1 | 10.4
64 | C[N+]1(CCN2C(=O)C3CC=C(Cl)CC3C2=O)CCOCC1.[Br-] (centres unmarked) | 10.4
65 | COC(=O)c1cc(=O)n(CCc2ccccc2F)c(=Nc2ccc(F)c(Cl)c2)s1 | 13.1
66 | CCOc1ccc(-c2nnn(CC(=O)NCc3ccco3)n2)cc1OCC | -7.4
67 | COC(=O)C1CSC(C)(C)C(=O)N1 (centres unmarked) | 8.39
68 | CCOC(=O)N1CCC(Nc2c(NCCCN(CC)c3cccc(C)c3)c(=O)c2=O)CC1 | 6.98
69 | O=S(=O)(NCCc1cccs1)c1ccc(Br)cc1 | -3.21

Row | SMILES | hERG current change (%, negative = inhibition) at 1uM [%]
70 | O=C(Nc1nc2ccsc2c(=O)s1)C1CCC1 | 7.31
71 | COc1ccc(NC(=O)c2ccc(Cl)c(S(=O)(=O)N3CCc4ccccc4C3)c2)cn1 | -0.996
72 | Cc1ccccc1-n1c(SCC(=O)N/N=C/C=C/c2ccccc2[N+](=O)[O-])nc2ccccc2c1=O | 11
73 | CCCN1C(=O)C(Cc2nc3ccccc3c(=O)n2C)c2ccccc21 (centres unmarked) | 3.08
74 | Cc1ccc(NS(=O)(=O)c2cc(N)ccc2Cl)c(C)c1 | 3.91
75 | Cc1ccc(NC(=O)Cn2nnc(-c3ccccc3NC(=O)c3cccs3)n2)cc1 | 23
76 | O=C(c1ccco1)N(Cc1ccc(Cl)cc1)C1CCS(=O)(=O)C1 (centres unmarked) | -2.75
77 | COC(=O)c1ccc(C(=O)OC)c(NC(=O)CCC(=O)O)c1 | 2.44
78 | Cc1onc(-c2ccccc2Cl)c1NC(=O)NCc1cccs1 | 4.83
79 | COc1ccc(-c2nc(CN3CCN(Cc4cccc(Cl)c4)CC3)c(C)o2)cc1 | 17.2
80 | CC(Oc1ccccc1)C(=O)NC1CCN(Cc2ccccc2)CC1 (centres unmarked) | -5.84
81 | COC(=O)c1c(NC(=O)CN2CCN(C(=O)c3ccco3)CC2)c2cc(C)ccc2n1C | 13.7
82 | COC(=O)Cc1cc(OC)c(OC)cc1S(=O)(=O)N(C)C | 3.4
83 | Clc1ccc2nc(N3CCCCC3)sc2c1 | 12.2
84 | CCNC(=O)CSc1nnc(C2CC2)n1-c1ccccc1 | 8.39
85 | Cc1cc(C(=O)CC#N)c(C)n1-c1c(C)n(C)n(-c2ccccc2)c1=O | 14.3
86 | Cc1ccccc1N(Cc1ccccc1F)S(C)(=O)=O | 0.682
87 | CCOCCCNC(=O)C1CCCN(S(=O)(=O)c2ccc(-n3cnnn3)cc2)C1 (centres unmarked) | -0.875
88 | CCN(CC)S(=O)(=O)c1cc(Br)ccc1OC | 8.87
89 | CCOC(=O)c1cnc(SCC(=O)N2CCN(c3ccccc3)CC2)nc1N | -3.43
